Measurements reported in the supplement of paper PMC11417369.
Some of the results follow.

What follows are sequences tested on PfSIP2 AP2 domain 1 (GST-tagged) (assay: gcPBM binding intensity (ln(normalized median fluorescence intensity)); higher = stronger DNA binding).
Procedure, shortened: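 GST-tagged P. falciparum DNA-binding domains, expressed in E. coli (about 25 μg on average), were applied for 1 h to an Agilent 4 × 180k array of primer-extended double-stranded 36-bp intergenic genomic probes plus negative controls. The binding buffer was 1× PBS with 1% milk, 0.2 mg/ml BSA, 0.5% salmon testes DNA and 0.03% Triton X-100. Bound protein was detected with Alexa488 anti-GST antibody and scanned at 488 nm. Binding intensity is the highest Masliner-normalised natural-log median intensity across replicate spots of either probe orientation.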

| Sequence | gcPBM binding intensity (ln) |
| --- | --- |
| AAAGTAAAAATATACTGTACAAATTTTTTCCCCTCT [XGTACX_site171] | 6.94 |
| AAAGAAAGCACATACACACACAAAAAAAAAAAAGAA [CACACA_site776] | 6.98 |
| ATTTTTTAAAAAGTAACACACACTCTTATAAATAAC [CACACA_site7668] | 7.08 |
| ATATTTATATACAAATGTACGCATATAATATATATA [XGTACX_site1232] | 7.5 |
| AAACAAAAAAAAAAAAAAAAAAAAAAAAAAAAAAAA [GTGCAC_negctrl_site254] | 7.16 |
| GATGCACTTTAAAAATGTACTTATACCTTTAATTGT [XGTACX_site6395] | 8.07 |
| AGAGATTATAAAATATGTACTAAATATTAAATCTTA [XGTACX_site7050] | 6.62 |
| AAAAAAATATTATAATATATATATATATATATATAT [GTGCAC_negctrl_site399] | 9.54 |
| ATAGAATCTGGTAGCTGTACGAGTCGTAGAGTGCAG [XGTACX_site2026] | 8.04 |
| AATATATACATATATGTACACACATTACAGATGTAC [CACACA_site8227] | 7.06 |
| AGGACTAATATTTGAACACACATATAATATATACAT [CACACA_site3998] | 6.98 |
| ATAACGACCTAGACGTGTACATACAAAGGAATGAAA [XGTACX_site4870] | 6.98 |
| CATACACATAGACACACACACATATATACCTATATA [CACACA_site6644] | 7.34 |
| GAAATGTATATTTTTACATGCAAATAAAATATATAA [TGCATGCA_site439] | 6.83 |
| TTTTTCTTGAATCGAAGTACTTAGGAGGGGATATTT [XGTACX_site2862] | 6.96 |
| ACACAATATATATATTGTACATACACATATTTACTA [XGTACX_site1872] | 7.29 |
| GAATATAAACATATTACACACATCTATAGGTACATT [CACACA_site6983] | 6.94 |
| GTGATTTAATTGTGTTGTACATATTTATAAATAAAA [XGTACX_site8966] | 7.15 |
| AAAAAAAAAAGAAACACACACATTTGTATTTAATAT [CACACA_site5184] | 6.64 |

| Sequence | gcPBM binding intensity (ln) |
| --- | --- |
| TTATTATTATATGAATGTACTTAAAAATACATTTTG [XGTACX_site2959] | 6.87 |
| ATTCTATATACACGCACACACACTTATATATATATA [CACACA_site3322] | 8.97 |
| CCCTTTTCTAAATATTGTACGTATAAATTATATTAC [XGTACX_site7676] | 7.45 |
| GTACAGATAAATATTACACACATTTTCATTTTTAAC [CACACA_site5140] | 6.99 |
| TTGTTCTTTTTTTTTTTATTTTTTAATTTGAAAAGA [CACACA_negctrl_site209] | 7.03 |
| AAAAAGAAAAAACGAAGTACAATTATAAGATTATAT [XGTACX_site410] | 6.84 |
| TATGTGCCAAGACACACACACATATTTATATTTATA [CACACA_site6360] | 7.05 |
| TATGAAAAATATCTTTGTACTTAGAAATATATACAC [XGTACX_site5393] | 7.27 |
| ATTTGTTACACTAAATGTACATACATACATATATAT [XGTACX_site6175] | 7.13 |
| TTATAAATTATAGGTACACACAAAAAAAAAAAGAAA [CACACA_site1327] | 7.31 |
| ATAAACATATCAATATGTACATATTTTTGTTTGTAT [XGTACX_site7018] | 6.94 |
| AAACCACAAAATTTTTTATATATGACCAATACATAG [CACACA_negctrl_site277] | 6.97 |
| ATTTATCAATAAAATGCACACACTGTAATATTATTA [CACACA_site3976] | 7.3 |
| TTATAATAGTTAAATGTACACACTAACTACATGGAA [CACACA_site9070] | 7.12 |
| TTCCATATAATTACATGTACACATTTTGAATAATAT [XGTACX_site3692] | 7.2 |
| ATATATATGTATGTATGTACATATTTGAATTTATTT [XGTACX_site8470] | 7.15 |
| AGCACAGACGGACACACACACATATATATATATATA [CACACA_site4341] | 9.69 |
| ACAGATATACATAAAAAAAAAATAATTTTACATATA [CACACA_negctrl_site929] | 6.95 |
| ATGTATGTATAATATACACACTCACAAGCATTCAAA [CACACA_site4306] | 6.83 |

| Sequence | gcPBM binding intensity (ln) |
| --- | --- |
| GTATATATTCATATGGAAAATAAAGGAGAAAACAAG [TGCATGCA_negctrl_site220] | 7.76 |
| TTTGTTTTTTCTTTTTGTACATATACAAGATACGTA [XGTACX_site2309] | 7.05 |
| GTGTTTTTTTTAGATTGTACATATATATATATATAT [XGTACX_site4562] | 9.25 |
| TTTTGTAATTCTCTTCATATAATTTATATATATATA [CACACA_negctrl_site1825] | 9.01 |
| ACCCAACATATGTGTACACAGAAAATAAATATAATA [CACACA_site5901] | 7.66 |
| ATGGTAGTGATTAAAAGTACACGTAATTGTAAAAAT [XGTACX_site387] | 7.07 |
| ATATATATACATACATACCTATGTATATGTGTAATT [GTGCAC_negctrl_site50] | 7.7 |
| TAAACAACTTATAAATGTACACATATTTTAATTACC [XGTACX_site5409] | 7.33 |
| AATAAAAACTAAACATGTACGCACATATATATATAT [XGTACX_site8096] | 9.51 |
| TAAGTGCATGAGATATGTACATATATAAAATATATA [XGTACX_site3294] | 8.89 |
| TAAAAAAAAAAAAATACACACACACCGATATATATA [CACACA_site8498] | 7.52 |
| TCATAGTCTTAATGACTACACACCTAACTATGCATG [CACACA_site1839] | 6.85 |
| TTTTTTTCTTTATTAGCACACATAATATTATATATG [CACACA_site8841] | 7 |
| TATATCATTATATAAACACACAATATGTTTTTTATA [CACACA_site3781] | 6.76 |
| ACCTAAAAGGTATAATATATAAATAAAAAAAAAAAT [CACACA_negctrl_site134] | 6.83 |
| AAAATGAACAGACACACACACATATTTATATTTATA [CACACA_site7182] | 6.96 |
| TATTAATCTAATTCATAAAAAATGATCTATTTTGTT [CACACA_negctrl_site1035] | 6.75 |
| AACATTTGATAAGATACACACACAAGGAAAAAAATA [CACACA_site8004] | 7.09 |
